Measurements reported in the supplement of paper PMC3334620.
Whole data set: some 33,000 sequences, median “E-score (-0.5 to 0.5)” near -0.056, cut for the highest 2% near 0.38. The list shows a part of the results.

These sequences were tested against Stb4 (UniProt P50104) (assay: PBM E-score (8-mer binding enrichment) (E-score (-0.5 to 0.5)); higher = stronger / more preferred TF binding; most listed sequences are background and not binding sites). Conditions: protein concentration: 200 nM; construct: GST-DNA-binding domain.
Summary of the method: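 E-scores (a modified Wilcoxon-Mann-Whitney statistic) were assigned by the Universal PBM Analysis Suite to every ungapped eight-base word pooled with its reverse complement. The input came from universal all-10-mer Agilent arrays made double-stranded by primer extension and probed with GST-tagged yeast transcription factors at about 100-200 nM. Fluorescent anti-GST detected bound protein, and masliner normalised the scans.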
In the case of GTTTGTGA, the “PBM E-score” value is reported as -0.0209. In the case of CATGCGCC, the “PBM E-score” value is reported as 0.066. CCCAGCGC was tested, and the “PBM E-score” value was -0.0584. In the case of AATTGCAA, the “PBM E-score” value is reported as -0.0324. For AATTGATG, the “PBM E-score” value was 0.0574. For ATGACGTC, the “PBM E-score” value was -0.0614. With AACAGGTT the “PBM E-score” value was -0.0193. In the case of CAATCAGC, the “PBM E-score” value is reported as -0.164. In the case of AGTTCATG, the “PBM E-score” value is reported as -0.00844. For CCCGGGCA, the “PBM E-score” value was 0.266. CTCGAATC was tested, and the “PBM E-score” value was -0.207. With AGACCGGG the “PBM E-score” value was 0.155. For ACGCAAGG, the “PBM E-score” value was -0.184. AGCGCTAG was tested, and the “PBM E-score” value was -0.215. In the case of CTACCTCA, the “PBM E-score” value is reported as -0.0102. CATGTCCG was tested, and the “PBM E-score” value was 0.11. CCGGACGA was tested, and the “PBM E-score” value was 0.191. With CCTTCAGA the “PBM E-score” value was -0.155. In the case of CACACGCG, the “PBM E-score” value is reported as -0.0638. ACCGACTG was tested, and the “PBM E-score” value was 0.199. For AACAAAAC, the “PBM E-score” value was 0.0726. In the case of ATAACAGA, the “PBM E-score” value is reported as -0.0274. For CAGTAGGA, the “PBM E-score” value was -0.0533. In the case of AGGGTTGA, the “PBM E-score” value is reported as 0.0221. AAATCCTT was tested, and the “PBM E-score” value was -0.122. With CACCGGTC the “PBM E-score” value was -0.0811. In the case of TACCGGCA, the “PBM E-score” value is reported as 0.279. ATTACGAC was tested, and the “PBM E-score” value was -0.0667. GAGTCCCA was tested, and the “PBM E-score” value was 0.116. With AGTTAGGG the “PBM E-score” value was -0.0805. With CCCGTTCC the “PBM E-score” value was 0.236. With AAACTTAA the “PBM E-score” value was 0.0017. With GAGATTCC the “PBM E-score” value was 0.267. For AATCTTCC, the “PBM E-score” value was 0.249. ATGTTAGG was tested, and the “PBM E-score” value was -0.143. With AGAAGTCT the “PBM E-score” value was -0.185. CCATTAGA was tested, and the “PBM E-score” value was -0.124. In the case of ATCTAATG, the “PBM E-score” value is reported as 0.0219. For CTACATTA, the “PBM E-score” value was -0.128. In the case of CACAAACA, the “PBM E-score” value is reported as -0.0138. For AGAACACC, the “PBM E-score” value was -0.00556. ACACAAGA was tested, and the “PBM E-score” value was -0.0626. With AAAAAGTG the “PBM E-score” value was -0.127. ACAAGCAC was tested, and the “PBM E-score” value was 0.0237. With GTGTACGA the “PBM E-score” value was 0.0346. GCCCAGAC was tested, and the “PBM E-score” value was -0.133. For ATAGTGAT, the “PBM E-score” value was -0.0643. In the case of CCTGAAAA, the “PBM E-score” value is reported as -0.029. CCGGTCGC was tested, and the “PBM E-score” value was 0.0983. With AATAAGTA the “PBM E-score” value was -0.124. With AGATTTGA the “PBM E-score” value was -0.0414. With GCGCCCTA the “PBM E-score” value was -0.0848. GGGGTTCA was tested, and the “PBM E-score” value was -0.16. With AGTCCAAC the “PBM E-score” value was -0.196. For ATCTTTCA, the “PBM E-score” value was 0.11. For AGTCTTGC, the “PBM E-score” value was -0.171. For AATAGGAG, the “PBM E-score” value was -0.317. With GACGCAGC the “PBM E-score” value was -0.332. With TAGAAAGA the “PBM E-score” value was -0.169. For AATTGAAG, the “PBM E-score” value was -0.06. With AGAAGCGC the “PBM E-score” value was -0.0636. For ACTAGGAG, the “PBM E-score” value was -0.131. With ACTCTTAC the “PBM E-score” value was -0.129. For CGGTCCGA, the “PBM E-score” value was 0.449. AAGTGTAG was tested, and the “PBM E-score” value was -0.173. In the case of AGAACAAC, the “PBM E-score” value is reported as -0.157. CGACACTA was tested, and the “PBM E-score” value was 0.0541. CATTTATA was tested, and the “PBM E-score” value was -0.0509. GCCGTGGA was tested, and the “PBM E-score” value was 0.081. In the case of AAGCCCTT, the “PBM E-score” value is reported as -0.224. With AGGGGACG the “PBM E-score” value was -0.135. CATACCCA was tested, and the “PBM E-score” value was -0.102. With CTGGTTCA the “PBM E-score” value was -0.0813. With AAGGCAGA the “PBM E-score” value was -0.201. CTCTGGTC was tested, and the “PBM E-score” value was -0.088. For GTCTCCAC, the “PBM E-score” value was -0.145. With ACGTACTC the “PBM E-score” value was 0.0468. CCCTATAA was tested, and the “PBM E-score” value was -0.0911. CGATCCTC was tested, and the “PBM E-score” value was -0.0188. TCCATAAA was tested, and the “PBM E-score” value was -0.181. AGATAATC was tested, and the “PBM E-score” value was 0.0225. In the case of GATCCAGA, the “PBM E-score” value is reported as -0.0775. For CAGCGATA, the “PBM E-score” value was 0.0297. With AATGGTTA the “PBM E-score” value was -0.0925. For CCACGCCG, the “PBM E-score” value was 0.0108. For ATCGAGAC, the “PBM E-score” value was 0.00507. In the case of AGCCATAT, the “PBM E-score” value is reported as -0.113. With ATCGTGCA the “PBM E-score” value was -0.194. For CAGGTTCA, the “PBM E-score” value was -0.296. In the case of CTGGACTA, the “PBM E-score” value is reported as -0.262. For CGTGTGAA, the “PBM E-score” value was -0.061. GCGATCTA was tested, and the “PBM E-score” value was -0.0238. In the case of CCAAGGAG, the “PBM E-score” value is reported as -0.0516. With ACGGACAC the “PBM E-score” value was 0.0209. In the case of CTCCTCGA, the “PBM E-score” value is reported as -0.284. With CTTCGCGC the “PBM E-score” value was 0.0416. For CAACACGG, the “PBM E-score” value was 0.135. In the case of CCAACTAC, the “PBM E-score” value is reported as -0.00781. For TATTAATA, the “PBM E-score” value was 0.15. With CCATCGAG the “PBM E-score” value was -0.0968. For CCGCTCAG, the “PBM E-score” value was -0.0134. With AAGATTCA the “PBM E-score” value was 0.0118. For AAGACTAT, the “PBM E-score” value was -0.184. For CAGCCTAA, the “PBM E-score” value was -0.325. In the case of AAGGGACT, the “PBM E-score” value is reported as -0.194. GACACAGA was tested, and the “PBM E-score” value was -0.0692. With ACTCTCTC the “PBM E-score” value was -0.0502. In the case of ATGCGTTG, the “PBM E-score” value is reported as -0.0732. For ACTGTTTG, the “PBM E-score” value was -0.343. For AGTATACA, the “PBM E-score” value was -0.146. With GACTTAAA the “PBM E-score” value was -0.0184. In the case of ACTTTGGA, the “PBM E-score” value is reported as -0.185. For CTGGGAAC, the “PBM E-score” value was -0.0256. In the case of GCATCCAC, the “PBM E-score” value is reported as -0.0227. GGTTTAAC was tested, and the “PBM E-score” value was 0.00403. With CAACATAC the “PBM E-score” value was -0.00716. GAGTGCGA was tested, and the “PBM E-score” value was -0.0302. CTTAAGCC was tested, and the “PBM E-score” value was 0.00161. With ACTTCACA the “PBM E-score” value was -0.0964. In the case of CCCAACGC, the “PBM E-score” value is reported as -0.166. In the case of CAGAGCAG, the “PBM E-score” value is reported as -0.134. With ACAAGAAT the “PBM E-score” value was -0.145. With AATTGTAC the “PBM E-score” value was 0.00703. In the case of ACGGCCCG, the “PBM E-score” value is reported as 0.284. With GACACCTA the “PBM E-score” value was -0.0375. GTTCATAA was tested, and the “PBM E-score” value was -0.109. AATCTACC was tested, and the “PBM E-score” value was 0.26. With GTCTGTTA the “PBM E-score” value was 0.0512. For ACTGTCCG, the “PBM E-score” value was 0.183. With TACAACAA the “PBM E-score” value was -0.072. With TGCGTACA the “PBM E-score” value was -0.0717. In the case of CGCTGAGA, the “PBM E-score” value is reported as -0.109. For AACCTTAC, the “PBM E-score” value was 0.0238. In the case of CTGTGGTA, the “PBM E-score” value is reported as -0.0522. For GCCAGAAA, the “PBM E-score” value was -0.0452. For CCATATAC, the “PBM E-score” value was -0.0759. With CAGCAGTC the “PBM E-score” value was -0.156. With AGGGCGGC the “PBM E-score” value was -0.073. For ACACTTCT, the “PBM E-score” value was -0.0789. ATTGATAG was tested, and the “PBM E-score” value was -0.0914. In the case of CTATGAAA, the “PBM E-score” value is reported as -0.0999. ATATAACA was tested, and the “PBM E-score” value was 0.169. For CCTCGTTC, the “PBM E-score” value was -0.0536. TATTACGA was tested, and the “PBM E-score” value was 0.0297. ATCAAACA was tested, and the “PBM E-score” value was -0.0992. In the case of AATCCCAA, the “PBM E-score” value is reported as -0.207. In the case of ATATTGAT, the “PBM E-score” value is reported as -0.0201. With CGGGGCCA the “PBM E-score” value was 0.22. With CACACCTA the “PBM E-score” value was -0.039. For ACGCATAT, the “PBM E-score” value was -0.175. For CAATTATG, the “PBM E-score” value was 0.00751. With ACTGGCAT the “PBM E-score” value was -0.297. With AGGTACTG the “PBM E-score” value was -0.0959. In the case of GGGACCAC, the “PBM E-score” value is reported as 0.0431. AAATTAAC was tested, and the “PBM E-score” value was 0.13. For AGCCGATG, the “PBM E-score” value was 0.321. ACGGAGAT was tested, and the “PBM E-score” value was 0.138. ATTAGACA was tested, and the “PBM E-score” value was -0.248. For TTTCGAAA, the “PBM E-score” value was -0.307. ACCGAATC was tested, and the “PBM E-score” value was 0.357. In the case of ACAAGCGC, the “PBM E-score” value is reported as 0.0421. With CTGCCACC the “PBM E-score” value was -0.142. For CATGATAA, the “PBM E-score” value was -0.105. CGGCTCAG was tested, and the “PBM E-score” value was 0.284. TGTAGACA was tested, and the “PBM E-score” value was -0.184. In the case of ACGCATAG, the “PBM E-score” value is reported as -0.101. In the case of ATCGTGTA, the “PBM E-score” value is reported as -0.0401. CTCGGAAC was tested, and the “PBM E-score” value was 0.485. CTGTTCTA was tested, and the “PBM E-score” value was -0.155. For ACGCATCT, the “PBM E-score” value was -0.00371. GCATGTCC was tested, and the “PBM E-score” value was -0.165. CAGTCGCA was tested, and the “PBM E-score” value was -0.283.
